# Assay results: PMC4336329 (PLoS ONE, 2015)
# Out of some 310,000 compounds screened, about 14,000 (4.5%) showed an effect of 50% or more. Effects have a minus sign here. This is one part of the list.
# Target: human ether-à-go-go-related gene (hERG) potassium channel (human, UniProt Q12809)
# Test: primary screen, population patch clamp on CHO cells stably expressing hERG
# 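Also: peak tail current of the secondary pulse compared with the same well before compound.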
# Chain of human ether-à-go-go-related gene (hERG) potassium channel (Q12809 whole entry, looked up): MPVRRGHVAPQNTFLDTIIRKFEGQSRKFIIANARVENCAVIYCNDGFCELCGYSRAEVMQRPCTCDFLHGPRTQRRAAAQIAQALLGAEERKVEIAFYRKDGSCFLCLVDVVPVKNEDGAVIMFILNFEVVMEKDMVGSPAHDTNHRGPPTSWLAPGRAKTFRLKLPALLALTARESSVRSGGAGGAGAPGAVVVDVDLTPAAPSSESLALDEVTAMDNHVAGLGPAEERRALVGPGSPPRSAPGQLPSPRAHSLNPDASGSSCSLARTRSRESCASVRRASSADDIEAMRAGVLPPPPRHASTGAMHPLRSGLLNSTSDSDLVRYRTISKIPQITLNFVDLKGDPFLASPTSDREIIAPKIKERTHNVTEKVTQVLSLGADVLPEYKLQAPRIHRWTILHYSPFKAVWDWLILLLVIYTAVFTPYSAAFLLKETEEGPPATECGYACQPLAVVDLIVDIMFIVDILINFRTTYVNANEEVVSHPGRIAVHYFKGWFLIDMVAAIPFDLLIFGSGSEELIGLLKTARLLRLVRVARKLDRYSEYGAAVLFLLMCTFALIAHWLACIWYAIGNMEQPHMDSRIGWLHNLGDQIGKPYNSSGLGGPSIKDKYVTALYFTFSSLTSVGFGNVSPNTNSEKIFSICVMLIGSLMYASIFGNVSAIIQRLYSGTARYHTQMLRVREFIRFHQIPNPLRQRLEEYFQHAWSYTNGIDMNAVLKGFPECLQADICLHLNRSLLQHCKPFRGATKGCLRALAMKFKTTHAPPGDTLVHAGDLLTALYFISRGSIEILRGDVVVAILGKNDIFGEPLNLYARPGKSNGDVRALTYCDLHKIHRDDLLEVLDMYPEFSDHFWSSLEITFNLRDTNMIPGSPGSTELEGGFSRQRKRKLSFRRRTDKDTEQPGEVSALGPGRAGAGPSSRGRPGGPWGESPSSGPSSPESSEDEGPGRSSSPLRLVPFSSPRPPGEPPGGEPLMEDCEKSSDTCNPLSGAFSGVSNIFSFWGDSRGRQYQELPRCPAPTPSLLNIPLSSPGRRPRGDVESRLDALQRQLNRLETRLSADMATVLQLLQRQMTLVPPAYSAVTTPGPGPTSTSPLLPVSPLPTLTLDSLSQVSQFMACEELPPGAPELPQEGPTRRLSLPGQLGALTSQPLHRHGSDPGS
row,Compound,"hERG current change (%, negative = inhibition) at 10uM"
1,C=CCn1c(COc2ccc(Cl)cc2)nnc1SCC(=O)c1c(N)n(C)c(=O)n(C)c1=O,12.5%
2,Cc1cc(C)n2nc(SCC(=O)N(C(C)C)C(C)C)nc2n1,12.7%
3,CCn1nc(C(C)C(=O)O)c2ccccc2c1=O (stereo not shown),29.7%
4,COc1ccc(C(=O)/C=C/C(=O)N(Cc2ccc(F)cc2)C(C(=O)NC2CCCCC2)c2ccncc2)c(O)c1 (stereo not shown),-5.4%
5,Cn1cc(C=O)c2ccccc21,19%
6,O=C(COc1cccc2c1CCN(Cc1ccc(Br)cc1)C2=O)N1CCOCC1,-58.4%
7,O=c1cc(/C=C/c2c(F)cccc2Cl)[nH]c2ccccc12,6.32%
8,Cc1cc(O)c(C(C)C)cc1N=Cc1cc([N+](=O)[O-])ccc1O,0.22%
9,N#Cc1c(-c2ccccc2)cc(C2CC2)nc1N,4.2%
10,COc1ccc(-c2oc3ncn4nc(Cc5ccccc5)nc4c3c2-c2ccc(OC)cc2)cc1,0.425%
11,N#CC1=C(N)C(C#N)(C#N)C(c2ccc[nH]2)C2CCCC=C12 (stereo not shown),-2.16%
12,CCN(CC(=O)Nc1ccccc1OC)C(=O)CCOc1ccc(C(C)(C)C)cc1,-27.4%
13,CC(=O)Nc1nc2ccc(S(=O)(=O)N3CCCCC3)cc2s1,11.4%
14,CC1(C)CC2(CC(C)(C)NC(=O)N2)NC(=O)N1,9.38%
15,CC1CCN(c2ccc(C(=O)O)cc2NS(=O)(=O)c2ccc(Br)cc2)CC1,-4.27%
16,CSCCC(NC(=O)c1ccc(Cl)cc1)C(=O)OCC(C)=O (stereo not shown),51.9%
17,Cc1cc(NC(=O)CCSc2nc(-c3ccco3)cc(C(F)(F)F)n2)n(-c2ccccc2)n1,-12.3%
18,COc1ccccc1-n1cc(-c2ccc(C)cc2)[nH]c1=S,14.2%
19,c1cc(Nc2ncnc3sccc23)cc(-c2nnc3n2CCCCC3)c1,-19.7%
20,CN(CCc1ccccc1)Cc1ccccc1[N+](=O)[O-],-24.1%
21,COc1ccc(OCC(O)Cn2cnc(-c3ccc(Br)cc3)c2)cc1 (stereo not shown),11%
22,O=C(Nc1ccc(S(=O)(=O)N2CCOCC2)cc1)C1CCN(S(=O)(=O)c2ccccc2)CC1,-20.8%

row,Compound,"hERG current change (%, negative = inhibition) at 10uM"
1,O=C(COc1ccc(S(=O)(=O)N2CCOCC2)cc1)NC1CC1,16.9%
2,O=S(=O)(NCc1csc(-c2cccs2)n1)c1ccccc1,4.27%
3,O=C(NNc1c(Cl)cc(Cl)cc1Cl)c1cccc([N+](=O)[O-])c1,13.2%
4,O=C(CCNC(=O)c1ccccc1Cl)Nc1nc2ccc(F)cc2s1,-10.4%
5,COc1ccc(NC(=O)/C(C#N)=C/c2cc(C)n(-c3ccc(N4CCOCC4)c([N+](=O)[O-])c3)c2C)cc1,-5.12%
6,O=C(Nc1nnc(SCCC2OCCO2)s1)C1CC(=O)N(c2ccc(F)cc2)C1 (stereo not shown),-0.557%
7,Cc1cc(C)cc(Oc2nc(-c3ccccc3)cc(C)c2S(C)(=O)=O)c1,-1.22%
8,O=C(COc1ccccc1)N1CCN(C(=O)Cc2ccccc2)CC1,-1.51%
9,Cc1ccc(C(=O)NCc2ccccc2CN2CCCC2)cc1S(=O)(=O)N1CCOCC1,-61.4%
10,CC(=O)NCC(=O)NC1CCCc2c1cnn2-c1ccccc1F (stereo not shown),19.4%
11,O=C(COC(=O)c1cc[n+]([O-])cc1)Nc1ccc([N+](=O)[O-])cc1,11.8%
12,C/C=C\C=C\C(=O)Nc1cccc(C2=NOC3(C2)C[C@H](C(N)=O)N(C(=O)c2ccccc2C(=O)c2ccccc2)C3)c1 (stereo partly shown),-21.5%
13,COCCN1C(=O)N(c2ccccc2)C(=O)C1CC(=O)Nc1cc(OC)cc(OC)c1 (stereo not shown),14%
14,COCCn1c(C)cc(C(=O)COc2ccc(N(C)S(=O)(=O)c3ccc(C)cc3)cc2)c1C,-19.9%
15,COc1cccc(CNCCO)c1OCc1ccccc1Cl.Cl,-8.68%
16,CCOC(=O)N1CCC2(CC1)NCCc1c2[nH]c2ccccc12,1.56%
17,CC1(C)CC(=O)C2=C(C1)Nc1cc3c(cc1C2c1ccc(F)cc1)OCO3 (stereo not shown),-41.8%
18,Cc1c(C#N)c(NC(=O)CCl)n(Cc2cccs2)c1C,-11.4%
19,O=C(NCC(c1cccnc1)N1CCN(c2ccc(F)cc2)CC1)c1cccc(Cl)c1 (stereo not shown),-66.2%
20,Cn1c(=O)cc(SCC(=O)NCCC2=CCCCC2)c2ccccc21,-11.3%
21,O=C1N(Cc2cccnc2)C[C@@H]2C[C@@H](c3ccccc3C(F)(F)F)N3CCC[C@@]123,-11.2%
